The values below come from article PMC5836133.

The list shows a part of the results. At the low end of the ranking the order means little.

The subject of this experiment is T1, GST-NbGlk1(82-244).
T1 sequence: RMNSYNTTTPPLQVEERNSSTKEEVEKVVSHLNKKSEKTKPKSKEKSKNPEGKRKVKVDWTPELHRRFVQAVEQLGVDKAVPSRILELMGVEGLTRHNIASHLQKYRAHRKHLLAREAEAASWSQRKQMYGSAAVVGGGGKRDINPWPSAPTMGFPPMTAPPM
Briefly: protein-binding microarray.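 Note: rank-based score ranging −0.5 to +0.5 with E above 0.45 taken as significant binding.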 Conditions: NbGlk1 is a Golden2-like transcription factor of Nicotiana benthamiana; high values mean tight binding; most listed sequences are background and not binding sites; double strand, one strand shown.
In the case of CAAAGCTA, the binding signal was -0.0958 E-score.
For AGATTGCG the value was 0.494 E-score.
The result for ACCTGTGA reads -0.12 E-score.
The sequence ACCTAATG returned a binding signal of 0.0883 E-score.
The result for ATTTTACA reads 0.27 E-score; that for AATATTCT, 0.313 E-score.
The result for AGCAGACG reads -0.0935 E-score.
The result for AAAGTCGG reads -0.148 E-score; that for AGCATTGG, -0.187 E-score; that for AACCCCCA, -0.321 E-score.
In the case of ACTTTCAG, the binding signal is -0.0802 E-score.
With ATAACGCA, the binding signal is 0.2 E-score.
The result for ACCGCGCG reads -0.00863 E-score.
For AGCTAGCT the value was -0.272 E-score; for AGTCTATC, -0.141 E-score; for AAACAACA, -0.00475 E-score.
The result for AATTTGCA reads 0.179 E-score; that for ACGCACTG, -0.0776 E-score.
Regarding AGGGCCGA, the binding signal is -0.121 E-score.
For ACGTTCAG the value was -0.213 E-score; for AAGCCCCA, -0.328 E-score.
The result for ACGTGCTG reads -0.174 E-score; that for ATTAAGCA, 0.0234 E-score.
In the case of AACTGTCG, the binding signal is -0.16 E-score.
For AAATTGGT the value was 0.0668 E-score; for CACAGAGG, -0.191 E-score; for ACTAACTC, 0.0143 E-score.
The result for AAAAAGAA reads 0.165 E-score.
Turning to ATTGCAAT, the binding signal was 0.305 E-score.
ACTGGGAG showed a binding signal of -0.223 E-score.
AAAAGGTA: the binding signal was found to be 0.0447 E-score.
For ATTATCCG the value was 0.279 E-score; for AAAGACTT, -0.0547 E-score.
For CAAAAACC the value was 0.0175 E-score.
For ATTAGAAA the value was 0.131 E-score; for ATAGAATA, 0.193 E-score; for AGGTGGCG, -0.119 E-score.
As to AGGGCTCG, the binding signal was -0.334 E-score.
Sequence ATACCCCG registered a binding signal of 0.0336 E-score.
The result for CAGATGGA reads -0.0656 E-score; that for AACAGCTG, -0.167 E-score; that for AAAACTGT, -0.0505 E-score.
Turning to AAGCGCAT, the binding signal was -0.0879 E-score.
Consider ATCGGGTA, for which the binding signal was 0.159 E-score.
For AATCTCAG the value was 0.428 E-score.
With AGATTTCC, the binding signal is 0.497 E-score.
The result for ATCCCTGA reads 0.0932 E-score.
Regarding CAATGACC, the binding signal is -0.187 E-score.
For ATAAACCC the value was -0.133 E-score; for AGAGGGAA, -0.131 E-score.
Sequence ACGCATCC yielded a binding signal of -0.0246 E-score.
The result for AAATCGGT reads 0.325 E-score; that for AAAATGGC, -0.0933 E-score.
Turning to AGAATGCA, the binding signal was determined as 0.0239 E-score.
The result for ATCTTCGA reads 0.318 E-score; that for ACGGCGGC, -0.24 E-score.
ACCGGGTA yielded a binding signal of -0.104 E-score.
The result for CACCTCCA reads -0.163 E-score; that for ATTGGGCA, -0.131 E-score.
The result for AGGTAGAG reads -0.152 E-score; that for AACCTACC, -0.167 E-score.
The result for AGCTTCTG reads -0.169 E-score; that for ATTAACTG, 0.0227 E-score; that for ACTTCAAC, -0.0337 E-score.
CAACTCCA returned a binding signal of -0.0884 E-score.
For ACCAATGG the value was -0.137 E-score; for AAGATGAG, -0.0363 E-score; for AGAATAAT, 0.206 E-score.
Sequence AGCCTACC yielded a binding signal of -0.0787 E-score.
The result for AATTCTAG reads 0.0563 E-score; that for ACAGTTAA, 0.107 E-score.
For CAAAGCAC the value was -0.0496 E-score.
The result for AGCGATGG reads -0.264 E-score.
In turn, ACTAGCTG gave a binding signal of -0.22 E-score.
For the sequence AGTCGATC, the binding signal was -0.0175 E-score.
Regarding CACCGTCA, the binding signal is -0.0843 E-score.
AGCGCGGG: the binding signal was -0.281 E-score.
For AGCACTGG the value was -0.182 E-score.
For ATCCCTCA the value was 0.207 E-score.
Regarding ATCTTAAC, the binding signal stood at 0.317 E-score.
Consider ACTATTAC, for which the binding signal came out at 0.0883 E-score.
AAACTGTG: the binding signal worked out at 0.015 E-score.
For AGTATGGA the value was -0.0481 E-score; for CACGCCGC, -0.279 E-score; for ACTAGATA, 0.267 E-score.
For ATGGTTGA the value was -0.0524 E-score; for AAATTCAC, 0.0254 E-score.
The sequence AGGCGACA displayed a binding signal of -0.0583 E-score.
The result for AATCCACC reads 0.382 E-score; that for AAGATCCA, 0.24 E-score.
Regarding ATTATTCC, the binding signal is 0.252 E-score.
For the sequence AGACATTG, the binding signal is -0.0164 E-score.
For ATGCTTTA the value was -0.074 E-score; for ATGGTCAC, -0.179 E-score.
Regarding AGTAAGCA, the binding signal is 0.0152 E-score.
As for AGGTAACG, the binding signal is -0.116 E-score.
For ACGCTACA, the binding signal was 0.0146 E-score.
AAGTTCAG displayed a binding signal of -0.0445 E-score.
AGCTTGCG had a binding signal of -0.0296 E-score.
As for AGACCATA, the binding signal is -0.045 E-score.
ATCGCGTG showed a binding signal of 0.304 E-score.
The result for AGCTTCAC reads -0.128 E-score.
CACAGGAG yielded a binding signal of 0.0136 E-score.
The result for AGGATCCT reads 0.307 E-score.
For AGCTTCCA the value was -0.125 E-score; for ACGTAGTA, -0.00289 E-score.
With ACGAGTAC, the binding signal amounted to 0.00865 E-score.
The result for AGCACGTC reads -0.274 E-score; that for CACTCAGA, 0.0425 E-score.
The result for ACGTCCCC reads -0.142 E-score; that for ACTTTTAG, -0.148 E-score; that for AATGACAC, -0.207 E-score.
On to AATGCCCT, for which the binding signal is -0.19 E-score.
The result for ACACGACA reads -0.0768 E-score; that for ACGCTGAC, -0.196 E-score.
For ATGAGTTG the value was -0.0729 E-score.
On to ACCTCGCC, for which the binding signal was -0.219 E-score.
The result for AGATTCTA reads 0.451 E-score; that for AACGATGT, -0.0855 E-score.
AGTAGCAT returned a binding signal of -0.0693 E-score.
The result for ATGGTAAG reads -0.0179 E-score; that for AAGACCTC, -0.238 E-score; that for CACAAGGG, -0.244 E-score.
AAGGGTTG: the binding signal is -0.265 E-score.
The result for AAGATATC reads 0.475 E-score; that for ATCGTCGG, 0.0875 E-score; that for AGACAGCC, -0.248 E-score.
For ACTACAAT the value was 0.157 E-score; for AATAAGCC, -0.017 E-score; for AATTTCAG, 0.134 E-score.
For AATACTCG the value was 0.0319 E-score; for CACTGGAC, -0.0809 E-score.
The sequence ATCTCCCC returned a binding signal of 0.301 E-score.
For AATTCAAG the value was 0.0601 E-score; for ACGACATG, -0.0832 E-score; for AGCCACTC, -0.298 E-score.
The sequence AGGACAAC came in with a binding signal of -0.147 E-score.
For AAGGGACC the value was -0.263 E-score; for AATTACCG, 0.185 E-score.
The sequence AGGTCACG registered a binding signal of -0.288 E-score.
Regarding AAATCGGG, the binding signal was 0.354 E-score.
The result for ATGTCCCA reads -0.126 E-score.
Consider AACGTTTC, for which the binding signal was 0.00568 E-score.
For AAGAGGGG the value was -0.141 E-score; for CACACTTA, -0.0798 E-score.
The sequence AAACTAGG gave a binding signal of 0.0238 E-score.
For AGTTCCTC, the binding signal was -0.213 E-score.
The result for CACATCGA reads 0.0129 E-score; that for ACAACGGC, -0.0792 E-score.
The result for AATTAACA reads 0.0796 E-score.
The result for ACGTTTCA reads -0.0261 E-score; that for AGAGGCCA, -0.268 E-score.
With AGTACAGG, the binding signal was -0.0766 E-score.
Turning to AGTTATGG, the binding signal is -0.0727 E-score.
Sequence AAACGAAA displayed a binding signal of 0.165 E-score.
For AACGGTCA the value was -0.152 E-score; for CAGACTTA, -0.143 E-score.
ACCGTGTC came in with a binding signal of -0.13 E-score.
The result for AAGTTTAG reads -0.0409 E-score.
For ACAAGGCG the value was -0.142 E-score; for AACGGTTG, 0.0221 E-score; for CAAGTTGC, -0.176 E-score.
The result for ATACATTC reads 0.14 E-score; that for AATACGGA, 0.178 E-score; that for ACGCGGCA, -0.0595 E-score.
ATCTGATA had a binding signal of 0.345 E-score.
The result for AGCACTAT reads 0.00798 E-score.
For AGCTACCG the value was -0.213 E-score; for CAGAACAA, -0.0731 E-score; for ACATTCCT, 0.0632 E-score.
As to ACCCATCC, the binding signal was -0.193 E-score.
Turning to AACGTGCC, the binding signal is -0.235 E-score.
